From a collection of fitness landscapes (doi:10.1016/j.celrep.2020.107928)
Whole data set: some 81,000 sequences, median “one-hybrid fitness for binding parS DNA” near -0.17, cut for the highest 2% near 0.51. Some of the results follow.

B1: Caulobacter ParB omega fusion; a variant is named by its letters at X, in order, B8GW30 (parent)
chain: MESVVVGEPGMSEGRRGLGRGLSALLGEVDAAPAQAPGEQLGGSREAPIEILQRNPDQPRRTFREEDLEDLSNSIREKGVLQPILVRPSPDTAGEYQIVAGERAWRAAQRAGLKTVPIMVRELDDLAVLEIGIIENVQRADLNVLEEALSYKVLMEKFERTQENIAQTIGKSXSHVANXMRLLXLPDEVQSYLVSGELTAXHARAIAAAADPVALAKQIIEGGLSVRETEALARKAPNLSAGKSKGGRPPRVKDTDTQALESDLSSVLGLDVSIDHRGSTGTLTITYATLEQLDDLCNRLTRGI

Variants of: B1
Assay: one-hybrid fitness for binding parS DNA (scaled: cognate 1, non-cognate 0); higher = stronger binding
Conditions: with parS DNA site
In short: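 Fitness is the rescaled log change in variant-to-wild-type read ratio, measured by Illumina sequencing of plasmids before and after bacterial one-hybrid selection. The scale puts cognate at 1 and non-cognate at 0. Selection of Caulobacter ParB libraries, four specificity codons randomised, took place in E. coli USO with a HIS3 reporter, site 19 bp from the promoter, over 48 hours at 37°C on M9-minus-histidine with 0.1 mM IPTG and 5 mM 3-AT.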

one-hybrid fitness for binding parS DNA, 1.03:
RVHG

one-hybrid fitness for binding parS DNA, 0.311:
RTAM

one-hybrid fitness for binding parS DNA, 0.944:
RTHS

one-hybrid fitness for binding parS DNA, 0.694:
RMKW

one-hybrid fitness for binding parS DNA, 0.219:
RSAW

one-hybrid fitness for binding parS DNA, ≤ 0.2:
YHTS
RTFD
MHNG
TNNL
DLWK
QISS
HPHY
AEYT
ASMI
DSYM
CNTG
NDKM
AWIS
ELSF
GDNG
FVRF
QKSM
WSYT
AWDV
SFCR
ALRG
ARKW
TMEC
STDW
PFLC
SYLT
TNRQ
SDAL
QPLA
YNKD
LQMT
CPTH
AQQN
LSPH
KNRC
PIIW
WVWR
GADD
VTQP
PIHV
FLET
PLYE
VGDL
ANSL
TQDD
VRLK
TPRH
CPKP
QFHY
MMQR
WTMG
KLAT
TRKT
QIKL
RKYF
ISFT
CTGR
PAAS
QSCH
PHGC
TPTE
YPER
PSDE
PVCM
PSYM
DITS
SFHW
GFRY
PCFE
DHVR
HNRV
HVHR
DPMY
TNGC
PVEA
CGGT
CIAC
MIVR
HIVA
YGAS
PTRK
RDPN
GFHC
EQYG
IKRS
HIMC
EKNL
CHGS
NITR
LNHS
RHSW
MHVR
ASNC
NMHW
VNRL
IYMV
TSLK
FLGN
ADDC
SMIT
QDFR
NAPS
NRDV
LKRT
TETL
TLER
RQMQ
SRMA
PDKR
CEKR
AMER
SNTT
HNYS
CIMG
LQRE
CMYG
VCTF
PIIG
PIIC
DDNE
LQVL
PPIN
ITTS
HKHV
RHTI
QCPD
SVPW
DTQA
ENDK
AWIV
PTGW
TAST
WLCC
GPEV
APGA
VYHG
DKCG
IPQK
CMCG
MFQS
YMYS
VGVG
NNNN
HRWL
NLIS
QAGA
WAAW
PIVT
HAPM
TCIT
DQSP
YENR
MTMS
DGEN
MCAN
PANC
CNVW
NASR
KQET
HRSL
VPVT
CMKE
QNFE
YYKE
SNMS
LIMS
TVVR
MWMR
KCLN
YQQR
QFWG
MPDQ
SQRT
TLAA
RRQF
DGSS
CMNW
TAPC
SAIQ
PCSC
MFRT
TMEW
AVRV
NQHA
NKDS
RYPQ
MGSG
WAHL
DEPA
DQSQ
SRKW
NEST
TVQG
VVLH
NTKY
RADW
KRNA
RIIE
SSNR
GFKI
HDIS
NLYT
AGNR
IKNV
GQNY
QSRA
STRT
FIWL
NPLT
SMAM
ARPN
KAIS
QLQC
WLSW
SPYW
IRKA
TSIS
QWIR
KQAM
HIAT
TGAH
DADS
EHSF
ERCI
HELI
MAVV
VNAV
FCPR
PNEF
ACAG
SDMG
GLKG
HRDA
RLVK
TSGP
QGPM
MPTS
MPNC
NNSW
TKPY
YTYL
HFVM
DCRL
HCAL
AEGV
RYKI
MNCG
TSYS
HSYS
TQNL
ESVC
AFKA
DEKH
PCLG
SMPS
DSRS
AVAA
NRNW
DGGR
QGPR
DPHG
WYIG
PLCS
PPEI
TSIR
WCSS
WAKA
KRQA
LTDC
RCVI
DSFM
RHNI
WSFA
DDNL
VMSH
KSLD
GDAG
RQGK
HAEV
DCHF
VPTN
TMHV
MLAV
QVCA
GWTS
NRVV
PDTS
DWIE
GGRY
RHIQ
CTCH
KNPP
HRAL
AAFY

one-hybrid fitness for binding parS DNA, 0.793:
RKQS

one-hybrid fitness for binding parS DNA, 0.739:
RSEC

one-hybrid fitness for binding parS DNA, 0.229:
RQTW

one-hybrid fitness for binding parS DNA, 0.256:
RTAF

one-hybrid fitness for binding parS DNA, 0.385:
RNSN

one-hybrid fitness for binding parS DNA, 0.469:
RINN

one-hybrid fitness for binding parS DNA, 0.436:
RGKY
